The text below walks through data of PMC4336329 (PLoS ONE, 2015).

Screen size: about 310,000 compounds; about 2,200 (0.71%) showed an effect of 50% or more. The effect is printed as a negative number. The list shows a part of the results.

For the test, the target named is human ether-à-go-go-related gene (hERG) potassium channel (human, UniProt Q12809). Kind of test: primary screen, population patch clamp on CHO cells stably expressing hERG.
Sequence of human ether-à-go-go-related gene (hERG) potassium channel (Q12809 whole entry, looked up): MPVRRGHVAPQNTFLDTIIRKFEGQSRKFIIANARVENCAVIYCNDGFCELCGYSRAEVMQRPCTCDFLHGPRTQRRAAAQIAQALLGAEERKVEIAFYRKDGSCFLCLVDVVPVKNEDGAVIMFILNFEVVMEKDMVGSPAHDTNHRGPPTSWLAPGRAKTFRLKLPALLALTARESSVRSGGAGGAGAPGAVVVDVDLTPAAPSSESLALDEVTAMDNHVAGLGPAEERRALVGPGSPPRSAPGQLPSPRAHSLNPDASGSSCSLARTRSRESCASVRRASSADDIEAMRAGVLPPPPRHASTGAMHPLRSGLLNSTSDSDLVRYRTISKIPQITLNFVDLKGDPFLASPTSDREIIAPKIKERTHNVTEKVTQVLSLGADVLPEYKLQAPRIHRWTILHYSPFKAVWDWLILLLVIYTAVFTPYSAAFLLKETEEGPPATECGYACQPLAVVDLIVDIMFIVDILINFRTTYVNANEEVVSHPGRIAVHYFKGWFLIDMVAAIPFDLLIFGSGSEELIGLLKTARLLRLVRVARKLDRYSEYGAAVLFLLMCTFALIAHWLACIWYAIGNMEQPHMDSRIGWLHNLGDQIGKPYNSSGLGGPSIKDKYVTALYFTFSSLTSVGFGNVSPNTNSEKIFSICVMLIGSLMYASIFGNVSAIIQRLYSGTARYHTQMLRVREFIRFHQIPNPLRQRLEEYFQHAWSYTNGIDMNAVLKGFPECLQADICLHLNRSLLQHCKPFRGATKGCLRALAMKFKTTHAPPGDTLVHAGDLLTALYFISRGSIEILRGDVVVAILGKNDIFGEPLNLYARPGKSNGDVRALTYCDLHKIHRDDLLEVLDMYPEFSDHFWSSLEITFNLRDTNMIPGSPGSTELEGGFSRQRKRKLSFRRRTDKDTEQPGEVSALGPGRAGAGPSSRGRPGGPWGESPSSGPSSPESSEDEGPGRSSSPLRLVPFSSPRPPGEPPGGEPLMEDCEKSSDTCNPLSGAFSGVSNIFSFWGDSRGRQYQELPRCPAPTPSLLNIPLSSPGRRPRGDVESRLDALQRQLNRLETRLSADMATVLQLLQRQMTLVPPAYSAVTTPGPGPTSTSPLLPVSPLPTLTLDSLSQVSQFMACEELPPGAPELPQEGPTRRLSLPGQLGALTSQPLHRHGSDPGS
With `Cn1c(=O)c2c(nc(NCc3ccccc3)n2C)n(C)c1=O`, the “hERG current change (%, negative = inhibition) at 1uM” value is given as 9.56%. Regarding `Cc1ccc(C)c2[nH]c(=O)c(CCNC(=O)c3ccc(S(=O)(=O)N(C)C)cc3)cc12`, the “hERG current change (%, negative = inhibition) at 1uM” value turned out to be 11.3%.

Consider `Cc1cc(C)cc(OCC(=O)NCc2cc(C)nc3ccccc23)c1`, for which the “hERG current change (%, negative = inhibition) at 1uM” value is on record as 2.81%. As for `CCOC(=O)C(=O)C1=CN(Cc2ccccc2)C=C(C#N)C1`, the figure is 11.5%; as for `Oc1ccccc1C(=S)N1CCCCC1`, 10.4%; as for `COc1ccc(NC(=O)NN2CCOCC2)cc1OC`, 17.4%. On to `COc1cccc(CNC(=O)CNS(=O)(=O)c2ccc(Br)s2)c1`, for which the “hERG current change (%, negative = inhibition) at 1uM” value is 15%. The figure for `O=C(COc1ccc(F)cc1)N1CCc2ccccc2C1` is 4.97%; for `Cc1c(NC(=O)c2cccs2)cccc1-c1nc2ccccc2s1` it is 15.9%. Turning to `Cc1cccn2c(=O)c(/C=C(\C#N)C(N)=O)c(N3CCN(c4cccc(Cl)c4)CC3)nc12`, the “hERG current change (%, negative = inhibition) at 1uM” value is given as 5.3%. Take `Cc1cc(N2CCOCC2)nc2ccc(NC(=S)N3CCN(c4ccccc4)CC3)cc12`: the “hERG current change (%, negative = inhibition) at 1uM” value was found to be 12%. The figure for `Cc1ccc(NC(=O)/C(=C/c2cccc(Br)c2)NC(=O)c2ccco2)cc1` is -20.6%. The figure for `O=C1C2CC=CCC2C(=O)N1c1ccc(NCCc2ccccc2F)c([N+](=O)[O-])c1` (centres unmarked) is 8.82%.

In the case of `CCCCn1c(=O)c(C(=O)Nc2cnccn2)c(O)c2ccccc21`, the “hERG current change (%, negative = inhibition) at 1uM” value is reported as 0.998%. Take `O=C(NC1=NCCS1)NC12CC3CC(CC(C3)C1)C2`: the “hERG current change (%, negative = inhibition) at 1uM” value is recorded as 16.6%. Regarding `CCCCCCc1nnc(N)s1`, the “hERG current change (%, negative = inhibition) at 1uM” value was 3.49%.

As to `CC(=O)c1ccc(Sc2ccc(C(C)=O)cc2)cc1`, the “hERG current change (%, negative = inhibition) at 1uM” value was found to be 5.55%. With `COc1ccccc1OCC(=O)Nc1cc(C(F)(F)F)ccc1-n1cncn1`, the “hERG current change (%, negative = inhibition) at 1uM” value is -10.6%. With `CCc1ccc(CNC(=O)C(=O)NCCc2ccc(OC)c(OC)c2)cc1`, the “hERG current change (%, negative = inhibition) at 1uM” value was found to be 8.47%. On to `Cc1ccc(S(=O)(=O)N2CCCCC2)cc1C(=O)N(C)CCOc1ccccc1`, for which the “hERG current change (%, negative = inhibition) at 1uM” value is -13.6%. The figure for `Cc1ccc(S(=O)(=O)NCC(C)n2nc(C)nc2C)cc1` (centres unmarked) is 8.64%; for `O=c1[nH]cnc2cc(Cl)ccc12` it is 9.48%. Consider `COc1ccc(CCNC(=O)CSc2nnc(-c3ccc(F)cc3)o2)cc1OC`, for which the “hERG current change (%, negative = inhibition) at 1uM” value was 9.32%. As for `COC(=O)c1c(C(=O)OC)c(-c2ccc(OC)cc2)n2c1CS(=O)C2` (centres unmarked), the figure is 13.9%. In the case of `Cc1c(C(=O)NCCc2ccc3c(c2)OCCO3)oc2ccccc12`, the “hERG current change (%, negative = inhibition) at 1uM” value was found to be 0.986%. The figure for `O=C1CC(N2CCC(c3nc4ccccc4[nH]3)CC2)C(=O)N1Cc1ccccc1` (centres unmarked) is -20.6%.
